{
  "source": "PubChem BioAssay AID686979",
  "about": "(National Center for Advancing Translational Sciences (NCATS), 2013)",
  "note": "Screen size: about 420,000 compounds; about 50,000 (12%) were called active. Inconclusive means that the source gave no clear call. Such entries were picked first, then a sample of the others. Calls follow the shape of the dose curve; as a rule, active = well fitted inhibition curve with a large enough effect; inconclusive = small, poorly fitted or top-dose-only effect; inactive = flat fitted curve, though single readings scatter. No potency is given beside an inconclusive call; the fits are too rough. % is scaled to controls: 0 for no effect and ±100 for the full control effect; potency is read from the fitted curve at half-maximal effect; tags tell the direction and shape of the fitted curve.",
  "data": [
    {"test": "qHTS for Inhibitors of human tyrosyl-DNA phosphodiesterase 1 (TDP1): qHTS in cells in presence of CPT; also: nearly all actives have a fitted effect of over 55% in size", "conditions": "chicken DT40 Tdp1-/-;hTDP1 cells + 20 nM CPT, ATP luminescence, 48 h; activity change, negative = growth inhibition: at 46.2 µM (top of the series) unless noted", "in_short": "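Cell growth measured by CellTiter-Glo luminescence after a minimum 48 h, 37 C compound exposure with 20 nM CPT in Tdp1-knockout DT40 cells stably expressing hTDP1, seeded 400/well; qHTS titration format.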", "values": [
      {"smiles": "CCOC(=O)N1CCN(C(=O)CSc2nc(CC)nc3c2c(=O)n(C)c(=O)n3C)CC1", "Potency": "inconclusive [inhibitor, single point]"},
      {"smiles": "O=C(O)c1cc(Cl)ccc1NC(=O)C1CCCO1", "note": "(stereo not given)", "activity change, negative = growth inhibition": "inactive: -1.88%"},
      {"smiles": "O=C(CNC(=O)c1ccc([N+](=O)[O-])cc1)N/N=C\\c1ccc(OC(=O)c2ccccc2)cc1", "Potency": "inconclusive [inhibitor, single point]"},
      {"smiles": "C=Cc1ccc(Cn2c(C)c(CNCCc3ccc(OCC)cc3)c(C(=O)O)c2C)cc1", "Potency": "inconclusive [inhibitor, single point]"},
      {"smiles": "O=C(C1CCC1)N1CCN(S(=O)(=O)c2ccc(F)cc2)CC1", "activity change, negative = growth inhibition": "inactive: -27.3%"},
      {"smiles": "Cn1cc(-c2cccc3nncn23)cn1", "Potency": "inconclusive [inhibitor, single point]"},
      {"smiles": "Cc1cccc(C)c1OCC(=O)N(Cc1ccco1)Cc1ccco1", "Potency": "inconclusive [inhibitor, single point]"},
      {"smiles": "Nc1cc(N)nc(SCC(=O)NCC(=O)Nc2ccc(F)c(F)c2F)n1", "activity change, negative = growth inhibition": "inactive: -3.59%"},
      {"smiles": "CCOC(=O)C1CCN(CCC(=O)Nc2ccc(Br)cc2)CC1", "Potency": "inconclusive [inhibitor, single point]"},
      {"smiles": "Cc1ccc(C)c(OC(=O)CN2C(=O)c3ccccc3C2=O)c1", "activity change, negative = growth inhibition": "inactive: 8.29%"},
      {"smiles": "CCOc1ccccc1NC(=S)NCc1ccccc1", "Potency": "active: 10.3 µM"},
      {"smiles": "Cn1c(=O)c(C#N)c(-c2ccc(F)cc2)c2cc(C(=O)c3cc(Cl)cc(Cl)c3O)cnc21", "Potency": "inconclusive [inhibitor, partial curve]"},
      {"smiles": "CCN(CC)C(=O)c1cccc(-c2csc(C(NC(C)=O)c3ccccc3)n2)c1", "note": "(stereo not given)", "Potency": "inconclusive [inhibitor, single point]"},
      {"smiles": "Cc1ccc2nc(NC(=O)c3ccc(S(=O)(=O)N4CCC(C)CC4)cc3)sc2c1", "Potency": "inconclusive [inhibitor, partial curve]"},
      {"smiles": "CCOC(=O)CCc1c(C)c2ccc(OCc3cc([N+](=O)[O-])ccc3OC)cc2oc1=O", "Potency": "active: 25.9 µM"},
      {"smiles": "O=c1[nH]c2cc3c(cc2cc1CN(CCCO)Cc1nnnn1Cc1ccc(F)cc1)OCO3", "Potency": "inconclusive [inhibitor, partial curve]"},
      {"smiles": "O=C(COC(=O)c1sc2ccccc2c1Cl)NCC1CCCCC1", "Potency": "inconclusive [inhibitor, single point]"},
      {"smiles": "Cc1ccc(N(CC(O)Cn2c3ccccc3c3ccccc32)S(C)(=O)=O)c(C)c1", "note": "(stereo not given)", "Potency": "inconclusive [inhibitor, single point]"},
      {"smiles": "CC1CC=CCC1(CO)CO", "note": "(stereo not given)", "activity change, negative = growth inhibition": "inactive: 3.74%"},
      {"smiles": "CN1CCCC(OC(=O)c2cccc(S(=O)(=O)N3CCCCCC3)c2)C1", "note": "(stereo not given)", "Potency": "inconclusive [inhibitor, single point]"},
      {"smiles": "CCCCOc1ccc(C(=O)NCC(=O)NCCOc2ccccc2OC)cc1", "activity change, negative = growth inhibition": "inactive: -15.8%"},
      {"smiles": "COc1ccc(S(=O)(=O)N(C)C)cc1NC(=O)CSc1ncccn1", "Potency": "inconclusive [inhibitor, single point]"},
      {"smiles": "CCc1cccc(CC)c1NC(=O)c1c(C)oc2ccc(O)c(CN3CCCC3)c12", "Potency": "inconclusive [inhibitor, single point]"},
      {"smiles": "CCCCn1c(SCC(N)=O)nc2ccc(N3CCOCC3)cc2c1=O", "activity change, negative = growth inhibition": "inactive: -22.9%"},
      {"smiles": "CCCCNC(=O)c1ccc2c(c1)N=C(CC)c1ccccc1S2", "Potency": "active: 4.11 µM"},
      {"smiles": "CCN1CCN(C(=O)c2ccc(Sc3ccccc3Cl)c([N+](=O)[O-])c2)CC1", "Potency": "inconclusive [inhibitor, single point]"},
      {"smiles": "COc1ccc(CC(=O)N(C)CC(=O)Nc2ccccc2SC)cc1", "Potency": "inconclusive [inhibitor, single point]"},
      {"smiles": "COc1ccc(-c2csc3ncnc(N4CCN(C(=O)c5ccco5)CC4)c23)cc1", "Potency": "active: 23.1 µM"},
      {"smiles": "Cc1ccccc1-c1ccc2ncnc(N(C)C)c2c1", "Potency": "inconclusive [inhibitor, single point]"},
      {"smiles": "CN1CCN(CCNC(=O)c2cnn(-c3ccc(F)cc3)c2C2CCN(C(=O)OC(C)(C)C)CC2)CC1", "Potency": "inconclusive [inhibitor, single point]"},
      {"smiles": "O=C(CCS(=O)(=O)c1ccc(F)cc1)Nc1ccc(N2CCN(Cc3ccccc3)CC2)cc1", "Potency": "inconclusive [inhibitor, single point]"},
      {"smiles": "Cc1ccc(S(=O)(=O)N2CCN(Cc3cccnc3)CC2)cc1", "activity change, negative = growth inhibition": "inactive: -8.94%"},
      {"smiles": "O=c1cc(-c2ccccc2)oc2ccc(Br)cc12", "activity change, negative = growth inhibition": "inconclusive: -35.7% [inhibitor]"},
      {"smiles": "O=C(CCCN1C(=O)c2cccnc2Oc2ccc(Cl)cc21)NCc1ccc(F)cc1", "Potency": "inconclusive [inhibitor, single point]"},
      {"smiles": "NC(=S)N/N=C/c1ccc(-c2ccc(SC(F)F)cc2)o1", "Potency": "active: 3.66 µM"},
      {"smiles": "Cc1ccc(NC(=O)C2CCCN(S(=O)(=O)c3cccs3)C2)cc1", "note": "(stereo not given)", "Potency": "inconclusive [inhibitor, single point]"},
      {"smiles": "Cc1ccc(S(=O)(=O)N2CCN(c3nc(-c4cncnc4)nc4ccccc34)CC2)cc1", "Potency": "active: 8.91 µM"},
      {"smiles": "Cc1ccc(S(=O)(=O)N/N=C/c2c(C)nn(-c3ccccc3)c2C)cc1", "activity change, negative = growth inhibition": "inactive: -10.5%"},
      {"smiles": "COc1ccc(CCNc2oc(Cc3cccc4ccccc34)nc2C#N)cc1OC", "Potency": "inconclusive [inhibitor, single point]"},
      {"smiles": "CCN(CC)CCCNC(=O)c1sc2ncn(CC(=O)Nc3ccc(C)c(Cl)c3)c(=O)c2c1C", "Potency": "inconclusive [inhibitor, single point]"},
      {"smiles": "Cc1nc(NC(=O)c2cc3c(s2)CCCCC3)sc1C(=O)N(C)C", "Potency": "inconclusive [inhibitor, partial curve]"},
      {"smiles": "CN(CCCC(=O)N1CCCC(C(N)=O)C1)S(=O)(=O)c1ccc(F)cc1", "note": "(stereo not given)", "activity change, negative = growth inhibition": "inactive: -8.29%"},
      {"smiles": "CCN1CCN(S(=O)(=O)c2ccc(Cl)c(C(=O)N(C)CC(=O)Nc3c(C)cccc3C)c2)CC1", "activity change, negative = growth inhibition": "inactive: -13%"},
      {"smiles": "CCN(CC)c1ccc(/C=C/c2ccccn2)cc1", "Potency": "active: 0.178 µM"},
      {"smiles": "Cc1cc(C)c(S(=O)(=O)N2CCOC2CNC(=O)C(=O)NCCc2ccc(S(N)(=O)=O)cc2)c(C)c1", "note": "(stereo not given)", "Potency": "inconclusive [inhibitor, partial curve]"}
    ]}
  ]
}
